According to patent US9498532B2, “Antibody drug conjugates” (Novartis AG, priority 2013, dated 2016):

Test system: human FGFR2 IIIb, FGFR2 IIIc and FGFR4
Experiment: Screening of panning outputs for specificity and cross-reactivity
Assay type: binding
Settings: human FGFR2 IIIb (P21802-3), IIIc (P21802-1), FGFR4 (P22455)
Experimental: Using ELISA screening, single Fab clones are identified from panning output for binding to the target antigen. Fabs are tested using Fab containing crude E. coli lysates.
Maxisorp™ (Nunc) 384 well plates were coated with FGFR antigens of interest (either via passive adsoption or via capture antibodies targeting the respective tag of the antigen) in PBS at their previous determined saturation concentration. Alternatively, Reacti-Bind™ NeutrAvidin™-coated Polystyrene Strip Plates (Pierce) were used to capture biotinylated FGFR2 antigen.
After blocking of plates with 5% skim milk powder in PBS, Fab-containing E. coli lysates were added. Binding of Fabs was detected by F(ab)2 specific goat anti-human IgG conjugated to alkaline phosphatase (diluted 1:5000) using Attophos fluorescence substrate (Roche, catalog #11681982001). Fluorescence emission at 535 nm was recorded with excitation at 430 nm.
In FACS screening, single Fab clones binding to cell surface expressed antigen are identified from the panning output. Fabs are tested for cell binding using Fab containing crude E. coli lysates.
In total, 28 different panning strategies were employed using recombinant antigen material as well as cell lines as outlined above. […] Following the screening process described, 15 antibodies were selected for further characterization as described in the examples below.

B1: 12422 (antibody)
heavy: QVQLVQSGAEVKKPGSSVKVSCKASGGTFSSYAISWVRQAPGQGLEWMGYISPYMGETHYAQKFQGRVTITADESTSTAYMELSSLRSEDTAVYYCARESYEYFDIWGQGTLVTVSSASTKGPSVFPLAPSSKSTSGGTAALGCLVKDYFPEPVTVSWNSGALTSGVHTFPAVLQSSGLYSLSSVVTVPSSSLGTQTYICNVNHKPSNTKVDKRV[in this place human IgG1 Fc]
light: DIQMTQSPSSLSASVGDRVTITCRASQSISNDLAWYQQKPGKAPKLLIYATSILQSGVPSRFSGSGSGTDFTLTISSLQPEDFATYYCLQYYDYSYTFGQGTKVEIKRTVAAPSVFIFPPSDEQLKSGTASVVCLLNNFYPREAKVQWKVDNALQSGNSQESVTEQDSKDSTYSLSSTLTLSKADYEKHKVYACEVTHQGLSSPVTKSFNRGEC
FGFR isoform binding specificity found in screening: bind to both human FGFR2 IIIb (Uniprot Accession # P21802-3) and IIIc isoforms (Uniprot Accession # P21802-1) and also human FGFR4

B2: 12439 (antibody)
heavy: QVQLVQSGAEVKKPGASVKVSCKASGYTFTSYDISWVRQAPGQGLEWMGWINPYNGGTNYAQKFQGRVTMTRDTSISTAYMELSRLRSEDTAVYYCAREGSGMIVYPGWSYAFDYWGQGTLVTVSSASTKGPSVFPLAPSSKSTSGGTAALGCLVKDYFPEPVTVSWNSGALTSGVHTFPAVLQSSGLYSLSSVVTVPSSSLGTQTYICNVNHKPSNTKVDKRV[in this place human IgG1 Fc]
light: DIQMTQSPSSLSASVGDRVTITCRASQDISNDLGWYQQKPGKAPKLLIYAASSLQSGVPSRFSGSGSGTDFTLTISSLQPEDFATYYCQQHYHTPNTFGQGTKVEIKRTVAAPSVFIFPPSDEQLKSGTASVVCLLNNFYPREAKVQWKVDNALQSGNSQESVTEQDSKDSTYSLSSTLTLSKADYEKHKVYACEVTHQGLSSPVTKSFNRGEC
FGFR isoform binding specificity found in screening: bind to both human FGFR2 IIIb (Uniprot Accession # P21802-3) and IIIc isoforms (Uniprot Accession # P21802-1) and also human FGFR4
